# From patent US20260103529A1, “Amino Acid Sequences Directed Against the Melanocortin 4 Receptor and Polypeptides Comprising the Same for the Treatment of MC4R-Related Diseases and Disorders” (Confo Therapeutics N.V., priority 2022, published 2026)
# T1: human wild type MC4R (Homo sapiens, UniProt P32245)
# T1 sequence (P32245 1-332): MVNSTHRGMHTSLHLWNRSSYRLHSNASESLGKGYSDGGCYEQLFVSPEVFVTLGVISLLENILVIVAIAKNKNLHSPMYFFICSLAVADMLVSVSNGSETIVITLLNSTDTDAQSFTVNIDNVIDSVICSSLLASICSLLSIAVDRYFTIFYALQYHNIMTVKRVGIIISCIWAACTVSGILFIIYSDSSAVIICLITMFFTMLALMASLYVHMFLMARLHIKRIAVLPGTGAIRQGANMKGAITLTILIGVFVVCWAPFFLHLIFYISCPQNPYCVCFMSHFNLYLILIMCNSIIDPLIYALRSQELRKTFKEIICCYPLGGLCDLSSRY
# B1: pN2113: single domain antibody (VHH) hIgG1 FC fusion of pN2121, SEQ ID NO: 193 (protein)
# chain: QVQLVESGGGLVQPGGSLRLSCAASGSAFSLHWMGWYRQTPGKQRELVAEITKSGSTNYADSAKGRFTISRDNAKNTVYLQMNSLRPEDTAVYYCKARTGRIVRPVDYWGQGTLVTVSS[in this place human IgG1 Fc with changes]
# modifications: pN2113 = pN2121-huFc_IgG1 L234A _L235A
# B2: pN0162-huFcIgG1_N297A: Fc-based construct of pN0162 with human IgG1 Fc N297A, SEQ ID NO: 190 (protein)
# chain: QVQLVESGGGLVQPGGSLRLSCAASGSAFSLNVMGWYRQTPGNQRALVAEITKDGSTNYADSAKGRFTISRDNAKNTVHLQMDSLKPEDTAVYYCKARTGRIVRPLDYWGQGTQVTVSS[in this place human IgG1 Fc with changes]
# modifications: pN0162-huFcIgG1_N297A
# Columns and labels:
# DIO mice = test: Diet-induced obese (DIO) mouse study, 14-day subcutaneous administration; type: in vivo
# Description: The mouse studies described in Examples 2 and 3 were performed at a fully AAALAC accredited unit (Gubra, Denmark), and all animal experiments were conducted in accordance with the CRO's bioethical guidelines, which are fully compliant to internationally accepted principles for the care and use of laboratory animals. All experiments were licensed by the Danish Animal Experimentation Council. This animal model is based on male C57BI/6J mice that are fed for a minimum of 18 weeks a 60% high fat diet that result in rapid weight gain. The mice were obtained from commercial vendors in Europe and United States transferred to Gubra's animal unit. The animal room environment is controlled (targeted ranges: temperature 21±2° C.; relative humidity 50±10%). The animals are maintained on a reversed 12 h light/dark cycle and have access to plenty of bedding material, shelters and chewing sticks. Animals were dosed just before lights went off.
# Male DIO mice (5 weeks of age at time of arrival and HF diet induction, 45 weeks of age at study start, n=50) had ad libitum access to 60% high fat diet (D12492, Research diets) and water. On study day−2, the mice were randomized into five treatment groups (n=10) based on body weight. […] Body weight and food intake were measured daily starting from day−3. On the day of termination, plasma samples were collected from the groups receiving pN2113. At termination, the livers were weighed, and liver samples collected for all groups.
# human wild type MC4R = target: T1, human wild type MC4R; test: cAMP GloSensor assay, MC4R; type: cell-based; set-up: Flag; expressed in transfected cells; host or cells: HEK293T; details: Promega GloSensor, HEK293 transiently transfected, real-time
# Description: To confirm MC4R activation, dose-dependent nanobody-induced cAMP signaling was assessed (Lance Ultra HTRF). […] Binding of pN162 to the human melanocortin receptor subtypes MC1R, MC2R, MC3R, MC4R or MC5R transiently expressed as Flag-tagged receptors in HEK293T cells was assessed by flow cytometry.
# HEK 293T cells were routinely maintained at 37° C., 5% CO2, under humidified atmosphere in Dulbecco's modified Eagle's medium (DMEM, Gibco, cat. no. 41966-029) supplemented with 10% heat-inactivated fetal bovine serum. In preparation of the experiments, cells were plated on poly-L-lysine coated white 96-well plates (Costar: 3917) at the density of 3,00E+04 cells/well. At the moment of seeding, cells were transfected with 25 ng of human MC4R in pcDNA3.1 (+) and 50 ng of p22F GLoSensor plasmid (Promega Corporation), empty pcDNA3.1 (+) vector was added to obtain 100 ng of total DNA, using XtremeGene HP (Roche). […] Next, background luminescence level was recorded using the En Vision 2104 Multilabel Plate Reader (Perkin Elmer). […] After addition of 10 μl of samples luminescence was recorded in a kinetic mode using the En Vision 2104 Multilabel Plate Reader (Perkin Elmer). Data were analyzed using GraphPad Prism 8 by applying nonlinear regression (curve fit).
# MC4R = test: Radioligand displacement, CHO stable cell line; type: binding; details: mean ± spread, n = 2
# [1] = pN2113 40 and 100 mg/kg SC QD 14 days
Molecule,total area under the curve (tAUC) of the relative body weight (day 0-14) (DIO mice; pN2113 40 and 100 mg/kg SC QD),absolute body weight at the end of the treatment period (day 14) (DIO mice; [1]),relative body weight at the end of the treatment period (day 14) (DIO mice; [1]),EC50 (human wild type MC4R) [nM],Radioligand displacement (MC4R) [nM]
B1,significantly reduced,no significant effect,no significant effect,,
B2,,,,34.7 ± 8.9,0.89 ± 0.39
